Results on 23 compounds are retold here after the supplement of paper PMC4604168 (melanoma cell lines).

Molecules are shown by their SMILES. The list shows a part of the results. Repeats are few or missing, and single values can be far off.

Some test systems named below: WM115; WM1716; WM1745; WM3526; WM3619; WM451Lu.
Assay in all cases: cell count relative to DMSO control; melanoma cells; higher = more viable cells
What all share (conditions): library dose: low library concentration; 72 h
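Also: cell number obtained by counting DAPI-stained nuclei in high-throughput microscope images with image analysis software, screen run in 1,536-well plates.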

Turning to `C[C@]1(O)C[C@@H](c2nc(-c3ccc4ccc(-c5ccccc5)nc4c3)c3c(N)nccn32)C1` + CN(NC(=O)CC(=O)NN(C)C(=S)c1ccccc1)C(=S)c1ccccc1 [STA4783] (first compound 0.4 µM, partner dose 0.006 µM), the cell count with WM115 came to 75.8%; with WM1716, 53.4%; in the test on WM1745, 5.07%; with WM3526 it was 86.1%; in the test on WM3619 it was 30.3%; in the test with WM451Lu, 116%.
Consider `COc1cc([C@@H]2c3cc4c(cc3[C@@H](O[C@@H]3O[C@@H]5CO[C@@H](C)O[C@H]5[C@H](O)[C@H]3O)[C@H]3COC(=O)[C@H]23)OCO4)cc(OC)c1O` [etoposide] + Nc1ncn([C@H]2C[C@H](O)[C@@H](CO)O2)c(=O)n1 [decitabine] (first compound 0.02 µM, partner dose 0.1 µM), for which the cell count with WM115 was 82.5%; in the test on WM1716, 84.7%; in the test with WM1745, 112%; in the test with WM3526, 101%; in the test on WM3619, 109%; in the test on WM451Lu it was 94.8%.
As to `CCN(CC)CCNC(=O)c1c(C)[nH]c(/C=C2\C(=O)Nc3ccc(F)cc32)c1C` [sunitinib] + CN1CCN(c2ccc3nc(-c4c(N)c5c(F)cccc5[nH]c4=O)[nH]c3c2)CC1 [Dovitinib] (first compound 0.4 µM, partner dose 0.1 µM), the cell count is 105% with WM115; 149% with WM1716; 72.4% in the test with WM1745; 77.6% in the test on WM3526; 81% with WM3619; 104% in the test on WM451Lu.
As for `COc1cc([C@@H]2c3cc4c(cc3[C@@H](O[C@@H]3O[C@@H]5CO[C@@H](C)O[C@H]5[C@H](O)[C@H]3O)[C@H]3COC(=O)[C@H]23)OCO4)cc(OC)c1O` [etoposide] + CCN(CC)CCNC(=O)c1c(C)[nH]c(/C=C2\C(=O)Nc3ccc(F)cc32)c1C [sunitinib] (first compound 0.02 µM, partner dose 0.4 µM), the cell count is 108% in the test on WM115; 127% in the test on WM1716; 96.6% in the test on WM1745; 97.3% in the test with WM3526; 107% with WM3619; 82.4% with WM451Lu.
Regarding `COc1cc([C@@H]2c3cc4c(cc3[C@@H](O[C@@H]3O[C@@H]5CO[C@@H](C)O[C@H]5[C@H](O)[C@H]3O)[C@H]3COC(=O)[C@H]23)OCO4)cc(OC)c1O` [etoposide] + OCCn1cc(-c2cnc3nnn(Cc4ccc5ncccc5c4)c3n2)cn1 [PF04217903] (first compound 0.02 µM, partner dose 1 µM), the cell count in the test on WM115 was 86.3%; with WM1716 it was 92.1%; in the test with WM1745 it was 105%; in the test with WM3526, 127%; in the test on WM3619 it was 86.3%; in the test on WM451Lu, 91.3%.
As for `Cn1cnc2c(F)c(Nc3ccc(Br)cc3Cl)c(C(=O)NOCCO)cc21` [selumetinib] + C=CCn1c(=O)c2cnc(Nc3ccc(N4CCN(C)CC4)cc3)nc2n1-c1cccc(C(C)(C)O)n1 [MK1775] (first compound 0.015 µM, partner dose 0.02 µM), the cell count in the test with WM115 worked out at 80.2%; in the test on WM1716, 94.2%; with WM1745, 86.3%; in the test with WM3526, 66.3%; with WM3619, 81.1%; in the test with WM451Lu it was 114%.
For `C[C@]1(O)C[C@@H](c2nc(-c3ccc4ccc(-c5ccccc5)nc4c3)c3c(N)nccn32)C1` + CC1(C)NC(=O)N(c2ccc([N+](=O)[O-])c(C(F)(F)F)c2)C1=O [nilutamide] (first compound 0.4 µM, partner dose 1 µM), the cell count was found to be 97.9% in the test on WM115; 112% in the test with WM1716; 84.4% in the test with WM1745; 110% in the test with WM3526; 142% in the test with WM3619; 79.4% in the test with WM451Lu.
On to `CCN(CC)CCNC(=O)c1c(C)[nH]c(/C=C2\C(=O)Nc3ccc(F)cc32)c1C` [sunitinib] + CO[C@H]1C[C@@H]2CC[C@@H](C)[C@@](O)(O2)C(=O)C(=O)N2CCCC[C@H]2C(=O)O[C@H]([C@H](C)C[C@@H]2CC[C@@H](OCCO)[C@H](OC)C2)CC(=O)[C@H](C)/C=C(\C)[C@@H](O)[C@@H](OC)C(=O)[C@H](C)C[C@H](C)/C=C/C=C/C=C/1C [everolimus] (first compound 0.4 µM, partner dose 0.02 µM), for which the cell count turned out to be 88.6% in the test on WM115; 86.4% with WM1716; 73.8% with WM1745; 62.4% with WM3526; 68% in the test on WM3619; 61.4% in the test with WM451Lu.
On to `Cn1cnc2c(F)c(Nc3ccc(Br)cc3Cl)c(C(=O)NOCCO)cc21` [selumetinib] + COc1ccc(-c2ccc3c(N4CCOCC4)nc(N4C[C@@H](C)O[C@@H](C)C4)nc3n2)cc1CO [KU0063794] (first compound 0.015 µM, partner dose 0.02 µM), for which the cell count is 78.4% in the test with WM115; 127% in the test with WM1716; 115% in the test with WM1745; 27.6% in the test on WM3526; 93.4% in the test on WM3619; 85.5% in the test with WM451Lu.
Consider `COc1cc([C@@H]2c3cc4c(cc3[C@@H](O[C@@H]3O[C@@H]5CO[C@@H](C)O[C@H]5[C@H](O)[C@H]3O)[C@H]3COC(=O)[C@H]23)OCO4)cc(OC)c1O` [etoposide] + Oc1nc(-c2ccc(C(F)(F)F)cc2)nc2c1CSCC2 [XAV939] (first compound 0.02 µM, partner dose 2 µM), for which the cell count was determined as 61.9% in the test with WM1716; 94.3% with WM1745; 88.2% in the test on WM3526; 97.5% with WM3619; 97.9% in the test with WM451Lu.
Consider `CCN(CC)CCNC(=O)c1c(C)[nH]c(/C=C2\C(=O)Nc3ccc(F)cc32)c1C` [sunitinib] + OCCn1cc(-c2cnc3nnn(Cc4ccc5ncccc5c4)c3n2)cn1 [PF04217903] (first compound 0.4 µM, partner dose 1 µM), for which the cell count is 110% with WM115; 118% in the test with WM1716; 93.9% in the test on WM1745; 81.1% in the test with WM3526; 151% in the test with WM3619; 116% with WM451Lu.
With `COc1cc([C@@H]2c3cc4c(cc3[C@@H](O[C@@H]3O[C@@H]5CO[C@@H](C)O[C@H]5[C@H](O)[C@H]3O)[C@H]3COC(=O)[C@H]23)OCO4)cc(OC)c1O` [etoposide] + O=c1cc(-c2cccc3c2Sc2ccccc2S3)oc(N2CCOCC2)c1 [KU55933] (first compound 0.02 µM, partner dose 1 µM), the cell count with WM115 stood at 89.7%; with WM1716 it was 87.5%; with WM1745, 86.6%; in the test on WM3526, 80.9%; in the test on WM3619, 85.3%; in the test with WM451Lu, 100%.
For `CCN(CC)CCNC(=O)c1c(C)[nH]c(/C=C2\C(=O)Nc3ccc(F)cc32)c1C` [sunitinib] + Oc1nc(-c2ccc(C(F)(F)F)cc2)nc2c1CSCC2 [XAV939] (first compound 0.4 µM, partner dose 2 µM), the cell count with WM115 is 102%; with WM1716 it was 98.7%; in the test with WM1745 it was 66.4%; in the test with WM3526, 73.5%; with WM3619 it was 98.8%; in the test with WM451Lu, 93.6%.
On to `Cn1cnc2c(F)c(Nc3ccc(Br)cc3Cl)c(C(=O)NOCCO)cc21` [selumetinib] + CCCS(=O)(=O)Nc1ccc(F)c(C(=O)c2c[nH]c3ncc(Cl)cc23)c1F [PLX4720] (first compound 0.015 µM, partner dose 0.08 µM), for which the cell count stood at 96.4% in the test with WM115; 82% in the test with WM1716; 95.6% in the test on WM1745; 60.4% with WM3526; 97.2% in the test on WM3619; 142% with WM451Lu.
For `COc1cc([C@@H]2c3cc4c(cc3[C@@H](O[C@@H]3O[C@@H]5CO[C@@H](C)O[C@H]5[C@H](O)[C@H]3O)[C@H]3COC(=O)[C@H]23)OCO4)cc(OC)c1O` [etoposide] + Nc1ccn([C@@H]2O[C@H](CO)[C@@H](O)C2(F)F)c(=O)n1 [gemcitabine] (first compound 0.02 µM, partner dose 0.0004 µM), the cell count in the test on WM115 was 83.5%; in the test on WM1716, 88.6%; with WM1745, 86.5%; with WM3526, 83%; in the test on WM3619, 84%; in the test on WM451Lu it was 77.3%.
Regarding `C[C@]1(O)C[C@@H](c2nc(-c3ccc4ccc(-c5ccccc5)nc4c3)c3c(N)nccn32)C1` + CCCCCCCCc1ccc(CCC(N)(CO)CO)cc1 [fingolimod] (first compound 0.4 µM, partner dose 2 µM), the cell count turned out to be 90.7% with WM115; 74% in the test on WM1716; 65% in the test on WM1745; 74.5% in the test with WM3526; 113% with WM3619; 97.7% in the test with WM451Lu.
For `CCN(CC)CCNC(=O)c1c(C)[nH]c(/C=C2\C(=O)Nc3ccc(F)cc32)c1C` [sunitinib] + CC(C)CCN1c2nc(Nc3cc(F)c(O)c(F)c3)ncc2N(C)C(=O)C1C [BID1870] (first compound 0.4 µM, partner dose 0.2 µM), the cell count in the test with WM115 stood at 108%; in the test on WM1716, 134%; in the test with WM1745, 93.6%; with WM3526 it was 70.5%; in the test on WM3619, 107%; in the test on WM451Lu it was 115%.
For the compound `CCN(CC)CCNC(=O)c1c(C)[nH]c(/C=C2\C(=O)Nc3ccc(F)cc32)c1C` [sunitinib] + O=C(O)[C@@H]1[O][Sb](=[O])([O][Sb]2(=[O])[O][C@H]([C@H](O)CO)[C@H](O)[C@H](C(=O)O)[O]2)[O][C@H]([C@H](O)CO)[C@@H]1O [stibogluconate] (first compound 0.4 µM, partner dose 2 µM), the cell count is 99.8% in the test with WM115; 134% in the test with WM1716; 85.2% in the test with WM1745; 89.6% with WM3526; 99.5% with WM3619; 111% in the test on WM451Lu.
As for `Cn1cnc2c(F)c(Nc3ccc(Br)cc3Cl)c(C(=O)NOCCO)cc21` [selumetinib] + CCN(CC)CCNC(=O)c1c(C)[nH]c(/C=C2\C(=O)Nc3ccc(F)cc32)c1C [sunitinib] (first compound 0.015 µM, partner dose 0.4 µM), the cell count with WM115 is 83.1%; in the test with WM1716, 131%; in the test on WM1745, 76.4%; in the test with WM3526, 57.3%; with WM3619 it was 95.5%; in the test with WM451Lu, 113%.
`Cn1cnc2c(F)c(Nc3ccc(Br)cc3Cl)c(C(=O)NOCCO)cc21` [selumetinib] + CC1(C)NC(=O)N(c2ccc([N+](=O)[O-])c(C(F)(F)F)c2)C1=O [nilutamide] (first compound 0.015 µM, partner dose 1 µM): the cell count in the test with WM115 stood at 110%; in the test with WM1716, 103%; in the test with WM1745, 94.6%; with WM3526, 68.9%; in the test with WM3619, 83.5%; with WM451Lu, 107%.
On to `Cn1cnc2c(F)c(Nc3ccc(Br)cc3Cl)c(C(=O)NOCCO)cc21` [selumetinib] + COc1ccc2c(c1)CCC1C2CCC2(C)C(NCCCCCCN3C(=O)C=CC3=O)CCC12 [U73122] (first compound 0.015 µM, partner dose 0.4 µM), for which the cell count in the test with WM115 was found to be 113%; in the test with WM1716, 97.3%; in the test on WM1745, 82.7%; in the test with WM3526, 75.5%; in the test on WM3619 it was 83.5%; in the test on WM451Lu, 93%.
`COc1cc([C@@H]2c3cc4c(cc3[C@@H](O[C@@H]3O[C@@H]5CO[C@@H](C)O[C@H]5[C@H](O)[C@H]3O)[C@H]3COC(=O)[C@H]23)OCO4)cc(OC)c1O` [etoposide] + CS(=O)(=O)CCNCc1ccc(-c2ccc3ncnc(Nc4ccc(OCc5cccc(F)c5)c(Cl)c4)c3c2)o1 [lapatinib] (first compound 0.02 µM, partner dose 0.8 µM): the cell count was 92.6% in the test on WM115; 88.3% in the test with WM1716; 82.1% in the test on WM1745; 82.1% in the test with WM3526; 98.3% in the test on WM451Lu.
As to `C[C@]1(O)C[C@@H](c2nc(-c3ccc4ccc(-c5ccccc5)nc4c3)c3c(N)nccn32)C1` + COc1ccc2c(c1)CCC1C2CCC2(C)C(NCCCCCCN3C(=O)C=CC3=O)CCC12 [U73122] (first compound 0.4 µM, partner dose 0.4 µM), the cell count came to 91.8% in the test with WM115; 76.9% with WM1716; 85.1% in the test on WM1745; 68.3% in the test with WM3526; 72.2% in the test with WM3619; 57.2% with WM451Lu.
